This is one part of the list. The main result of the screen is listed elsewhere. These columns were measured beside it and carry no call.
What was measured:
Assay in all cases: Primary Screen for Target Class Profiling of Small Molecule Inhibitors of Methyltransferases
[1] = molecular target: Glycine N-methyltransferase (Homo sapiens) (UniProt Q14749); details: purified enzyme, MTase-Glo SAH luminescence; measured here: GNMT inhibition; at 40 µM; stronger effect = lower value
How it was run: (§1)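 Each enzyme was assayed with SAM and its substrate. SAH formation detected by MTase-Glo luminescence; single-point 40 uM screen[…].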

[2] = molecular target: Guanidinoacetate N-methyltransferase (Homo sapiens) (UniProt Q14353); details: purified enzyme, MTase-Glo SAH luminescence; measured here: GAMT inhibition; at 40 µM; stronger effect = lower value
How it was run: as §1

[3] = molecular target: Histamine N-methyltransferase (Homo sapiens) (UniProt P50135); details: purified enzyme, MTase-Glo SAH luminescence; measured here: HNMT inhibition; at 40 µM; stronger effect = lower value
How it was run: as §1

[4] = molecular target: Nicotinamide N-methyltransferase (Homo sapiens) (UniProt P40261); details: purified enzyme, MTase-Glo SAH luminescence; measured here: NNMT inhibition; at 40 µM; stronger effect = lower value
How it was run: as §1

[5] = molecular target: Phenylethanolamine N-methyltransferase (Homo sapiens) (UniProt P11086); details: purified enzyme, MTase-Glo SAH luminescence; measured here: PNMT inhibition; at 40 µM; stronger effect = lower value
How it was run: as §1
% is scaled to controls: 0 for no effect and ±100 for the full control effect.

Row | Compound | activity change, negative = inhibition [1] | activity change, negative = inhibition [2] | activity change, negative = inhibition [3] | activity change, negative = inhibition [4] | activity change, negative = inhibition [5]
1 | COc1ccc(Nc2nc3c(S(=O)(=O)c4ccc(C)cc4)nnn3c3ccccc23)cc1 | -5.84% | 0.565% | 6.48% | -3.73% | -3.69%
2 | COCCCNC(=O)C1(C)Cn2nc(-c3ccccc3)cc2C(=O)N1c1ccccc1C (stereo unspecified) | 1.29% | 1.67% | 3.44% | 1.45% | -2.35%
3 | CC(C)CCN1C(=O)c2ccc(-c3ccco3)n2CC1(C)C(=O)NC1CCC(C)CC1 (stereo unspecified) | -18.3% | 0.567% | -1.36% | -21.2% | -1.21%
4 | COc1ccc2cc3n(c2c1)CC(C)(C(=O)NC1CCCC1)N(Cc1ccc(Cl)cc1)C3=O (stereo unspecified) | -3.2% | 2.75% | -1.8% | -6.57% | -9.31%
5 | CC1CCN(CCCNC(=O)CCc2nnc3n(Cc4ccccc4)c(=O)c4ccccc4n23)CC1 | -9.07% | 0% | -54.9% | 7.53% | -0.532%
6 | Cc1ccc(CNC(=O)Cn2nc3n(CC(C)C)c(=O)c4ccccc4n3c2=O)cc1 | -1.54% | 1.9% | -2% | -6.82% | -5.78%
7 | CC(C)Cn1c(=O)c2ccccc2n2c(SCC(=O)N3CCN(c4ccc(F)cc4)CC3)nnc12 | -0.799% | 0% | 6.9% | -11.3% | 4.65%
8 | CC[C@H](CO)Nc1nc(Nc2cccc(-c3ccccn3)c2)c2ncn(C(C)C)c2n1 | -14.4% | -4.39% | -26.2% | -30.8% | -19.3%
9 | Cn1c(=O)n(C)c2cc(S(=O)(=O)NCc3ccc4c(c3)OCO4)ccc21 | -1.72% | 6.84% | -4.32% | -4.95% | -4.74%
10 | CNC(=O)c1cccc(-c2ccccc2COc2ccc(CCOC)cc2)n1 | -5.32% | 0.983% | -0.953% | -7.63% | 11.5%
11 | CN(Cc1cccc(N2CCN(C(c3ccccc3)c3ccccc3)CC2)c1)[S+](C)(=O)[O-] | – | -10.4% | – | -18.6% | 2.87%
12 | COc1ccc(NC(=O)N2CCn3cccc3C2C(C)C)cc1 (stereo unspecified) | 17.1% | 2.22% | 10.1% | 9.64% | 9.72%
13 | Cc1nc(CN(C)c2ncnc3ccc(-c4ccc5c(c4)OCO5)cc23)cs1 | – | -86.3% | – | -91% | -91.7%
14 | COc1cc(NC(=O)Cn2nc3n(Cc4ccc(C)cc4)c(=O)c4ccccc4n3c2=O)cc(OC)c1 | 5.48% | 10.2% | 8.93% | 1.13% | 4.35%
15 | COc1cccc(CN2C(=O)c3c(NC(C)=O)c4ccccc4n3CC2(C)C(=O)NCCC(C)C)c1 (stereo unspecified) | 4.97% | 2.95% | 4.8% | -1.7% | 3.92%
16 | CCc1ccc(-c2cc3n(n2)CC(C)(C(=O)NC2CCCCC2)N(CCN2CCOCC2)C3=O)cc1 (stereo unspecified) | 5.87% | 0% | 6.16% | 8.58% | -14.7%
17 | Cn1ccnc1CN1C[C@@H](F)[C@@H](OCc2nc3ccccc3[nH]2)C1 | -6.48% | -10.9% | -4.2% | -17% | -10.5%
18 | CC1(C(=O)NC2CCCCCC2)Cn2c(cc3ccccc32)C(=O)N1CCN1CCOCC1 (stereo unspecified) | 0.661% | 5.36% | 3.86% | -0.776% | -2.42%
19 | CCC1(N2CCN(C(=O)Nc3cc(C)ccc3OC)CC2)CCN(C(=O)C(C)C)C1 (stereo unspecified) | -7.82% | -6.96% | -20.3% | -11% | -0.995%
20 | CC(=O)O[C@@H]1C[C@]2(C)[C@@]3(CCC4[C@@]5(C)CC[C@H](O[C@@H]6O[C@H](C(=O)O)[C@@H](O)[C@H](O[C@@H]7O[C@H](CO)[C@H](O)[C@H](O)[C@H]7O[C@@H]7O[C@@H](C)[C@H](O)[C@@H](O)[C@H]7O[C@@H]7OC[C@](O)(CO)[C@H]7O)[C@H]6O[C@@H]6O[C@H](CO)[C@H](O)[C@H](O)[C@H]6O)C(C)(C)C5CC[C@]42C)O[C@@H](O)[C@]12C3CC(C)(C)[C@@H](OC(=O)/C=C/c1ccc(O)c(O)c1)[C@@H]2OC(=O)/C=C/c1ccccc1 (stereo partly specified) | 1.51% | 4.77% | 6.75% | -9.5% | 7.47%
21 | O=C(CCc1nnc2n(Cc3ccc(Cl)cc3)c(=O)c3ccccc3n12)NCc1ccc2c(c1)OCO2 | 1.46% | 3.42% | 1.98% | 9.91% | -1.35%
22 | CC1OC(OC2C(CO)OC(OCC3OC(OC(=O)C45CCC(C)(C)CC4C4=CCC6C7(C)CCC(OC8OC(CO)C(O)C(OC9OC(CO)C(O)C(O)C9O)C8O)C(C)(C)C7CCC6(C)C4(C)CC5)C(O)C(O)C3O)C(O)C2O)C(O)C(O)C1OC1OC(CO)C(O)C(O)C1O (stereo unspecified) | 0.484% | 6.49% | 8.62% | -6.2% | -1.63%
23 | CC(=O)Nc1ccc(S(=O)(=O)Nc2ccc3c(c2)n(C)c(=O)n3C)c(C)c1 | 1.59% | 2.73% | -0.024% | 3.52% | -9.66%
24 | CC(C)Cn1c(=O)c2ccccc2n2c(SCc3c(F)cccc3Cl)nnc12 | -1.21% | 4.69% | 1.7% | -8.66% | -4.05%
25 | O=C(CCNc1c(-c2cccc(F)c2)nc2cnccn12)NCc1ccc(Cl)cc1 | -15.9% | -8.79% | -8.97% | -21.1% | -8.61%
26 | Cn1cc(-c2cnc3ccc4ccc(CS(=O)(=O)NCc5ccccn5)cc4c(=O)c3c2)cn1 | -11.6% | -9.65% | 2.51% | -19.4% | -52.6%
27 | CC(C)=CCC[C@](C)(O[C@@H]1O[C@H](CO)[C@@H](O)[C@H](O)[C@H]1O)[C@H]1CC[C@]2(C)[C@@H]1[C@H](O)CC1[C@@]3(C)CC[C@H](O)C(C)(C)C3[C@@H](O[C@@H]3O[C@H](CO)[C@@H](O)[C@H](O)[C@H]3O)C[C@]12C (stereo partly specified) | 0% | 4.97% | 12.6% | -6.52% | 0.447%
28 | COc1cc(O[C@@H]2O[C@H](CO[C@H]3OC[C@](O)(CO)[C@H]3O)[C@@H](O)[C@H](O)[C@H]2O)cc(OC)c1O | 2.53% | 1.39% | 11.2% | -10.8% | -7.3%

— PubChem BioAssay AID1745853 (National Center for Advancing Translational Sciences (NCATS), 2022)
